Assay results reported in the supplement of paper PMC4967469.
The IC50 comes from the fitted curve, where viability falls to half of the control; where the fit passes the top or lowest dose, that dose stands as a limit. AUC is the area under the same curve over the 256-fold range up to the top dose, as a fraction: 1 means no effect, lower means more sensitive. For some of these results: The top dose, if marked as inferred, was derived from the fitted curves, not read from the paper. For some of these results: An entry number marks a drug with two screens in the source, which often give different values.

What was measured:
Assay in all cases: Viability of human cancer cell lines after 72 h of drug (GDSC screen)
[1] = compound: Cc1ccc(NC(=O)c2cccc(C(C)(C)C#N)c2)cc1Nc1ccc2ncn(C)c(=O)c2c1 [AZ628]; settings: top dose 4 µM; top dose inferred
Procedure: (§1)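 Human cancer cell lines in 384-well plates, medium with 10% serum, drug for 72 h over a 256-fold dose range (nine 2-fold or five 4-fold steps up to the top dose). Adherent lines were fixed and stained with the nucleic acid dye Syto60, suspension lines read with resazurin; signal relative to control wells, capped at 0 and 100%. One two-parameter sigmoid per drug and line, fitted in a mixed model over all curves with the slope shared within a line.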

[2] = compound: N#CC(c1ccnc(NCCc2cccnc2)n1)c1nc2ccccc2s1 [AS601245]; settings: top dose 8 µM; top dose inferred
Procedure: as §1

[3] = compound: NC(=O)C1CCCc2c1[nH]c1ccc(Cl)cc21 [EX-527]; settings: top dose 20 µM
Procedure: as §1

[4] = compound: Nc1ccc(C(=O)Nc2cccc(-c3nc(N4CCOCC4)c4oc5ncccc5c4n3)c2)cn1 [YM201636]; settings: top dose 5.12 µM; top dose inferred
Procedure: as §1

[5] = compound: Cn1cnc2c(F)c(Nc3ccc(Br)cc3Cl)c(C(=O)NOCCO)cc21 [AZD6244]; settings: top dose 4 µM; screen: GDSC drug entry 1498; top dose inferred
Procedure: as §1

Cell Line: BC-3 (B-cell lymphoma, suspension)
- AUC [1]: 0.875
- IC50 [1]: 3.2 µM
- AUC [2]: 0.907
- IC50 [2]: > 8 µM
- AUC [3]: 0.987
- IC50 [3]: > 20 µM
- AUC [4]: 0.842
- IC50 [4]: 3.06 µM

Cell Line: CAL-148 (breast, suspension)
- AUC [1]: 0.99
- IC50 [1]: > 4 µM
- AUC [2]: 0.988
- IC50 [2]: > 8 µM
- AUC [3]: 0.982
- IC50 [3]: > 20 µM
- AUC [4]: 0.917
- IC50 [4]: > 5.12 µM

Cell Line: CGTH-W-1 (thyroid, adherent)
- AUC [1]: 0.404
- IC50 [1]: 0.137 µM
- AUC [2]: 0.839
- IC50 [2]: 5.42 µM
- AUC [3]: 0.986
- IC50 [3]: > 20 µM
- AUC [4]: 0.902
- IC50 [4]: > 5.12 µM

Cell Line: CRO-AP2 (B-cell lymphoma, suspension)
- AUC [1]: 0.966
- IC50 [1]: > 4 µM
- AUC [5]: 0.963
- IC50 [5]: > 4 µM

Cell Line: D-247MG (glioma, adherent)
- AUC [1]: 0.819
- IC50 [1]: 3.43 µM
- AUC [5]: 0.927
- IC50 [5]: > 4 µM
- AUC [3]: 0.974
- IC50 [3]: > 20 µM
- AUC [4]: 0.962
- IC50 [4]: > 5.12 µM

Cell Line: D-336MG (glioma, adherent)
- AUC [1]: 0.942
- IC50 [1]: > 4 µM
- AUC [5]: 0.854
- IC50 [5]: > 4 µM
- AUC [3]: 0.975
- IC50 [3]: > 20 µM
- AUC [4]: 0.844
- IC50 [4]: > 5.12 µM

Cell Line: D-542MG (glioma, adherent)
- AUC [1]: 0.939
- IC50 [1]: > 4 µM
- AUC [5]: 0.921
- IC50 [5]: > 4 µM
- AUC [3]: 0.98
- IC50 [3]: > 20 µM
- AUC [4]: 0.976
- IC50 [4]: > 5.12 µM

Cell Line: DND-41 (T-cell leukaemia, suspension)
- AUC [1]: 0.809
- IC50 [1]: 1.8 µM
- AUC [5]: 0.93
- IC50 [5]: > 4 µM
- AUC [2]: 0.794
- IC50 [2]: 3.2 µM

Cell Line: DOHH-2 (B-cell lymphoma, suspension)
- AUC [1]: 0.741
- IC50 [1]: 1.2 µM
- AUC [2]: 0.861
- IC50 [2]: 6.53 µM

Cell Line: ECC12 (stomach, suspension)
- AUC [1]: 0.765
- IC50 [1]: 1.83 µM

Cell Line: EHEB (lymphoid neoplasm, suspension)
- AUC [1]: 0.817
- IC50 [1]: 3.72 µM
- AUC [5]: 0.781
- IC50 [5]: 2.52 µM
- AUC [2]: 0.874
- IC50 [2]: > 8 µM

Cell Line: EW-12 (Ewing sarcoma, suspension)
- AUC [1]: 0.841
- IC50 [1]: > 4 µM

Cell Line: EW-22 (Ewing sarcoma, adherent)
- AUC [1]: 0.839
- IC50 [1]: 2.57 µM
- AUC [5]: 0.986
- IC50 [5]: > 4 µM

Cell Line: GA-10 (Burkitt lymphoma, suspension)
- AUC [1]: 0.815
- IC50 [1]: 1.77 µM
- AUC [5]: 0.968
- IC50 [5]: > 4 µM

Cell Line: GCIY (stomach, adherent)
- AUC [1]: 0.96
- IC50 [1]: > 4 µM
- AUC [2]: 0.847
- IC50 [2]: 7.1 µM
- AUC [3]: 0.974
- IC50 [3]: > 20 µM
- AUC [4]: 0.899
- IC50 [4]: > 5.12 µM

Cell Line: HCC1599 (breast, suspension)
- AUC [1]: 0.844
- IC50 [1]: 3.49 µM
- AUC [2]: 0.866
- IC50 [2]: > 8 µM
- AUC [3]: 0.982
- IC50 [3]: > 20 µM
- AUC [4]: 0.821
- IC50 [4]: 3.54 µM

Cell Line: HCC-33 (small cell lung carcinoma, adherent)
- AUC [1]: 0.982
- IC50 [1]: > 4 µM
- AUC [2]: 0.971
- IC50 [2]: > 8 µM
- AUC [3]: 0.987
- IC50 [3]: > 20 µM
- AUC [4]: 0.948
- IC50 [4]: > 5.12 µM

Cell Line: HH (T-cell leukaemia, suspension)
- AUC [1]: 0.945
- IC50 [1]: > 4 µM
- AUC [5]: 0.957
- IC50 [5]: > 4 µM
- AUC [2]: 0.832
- IC50 [2]: 7.66 µM
- AUC [3]: 0.943
- IC50 [3]: > 20 µM

Cell Line: HL-60 (acute myeloid leukaemia, suspension)
- AUC [1]: 0.431
- IC50 [1]: 0.165 µM
- AUC [5]: 0.793
- IC50 [5]: 1.62 µM
- AUC [2]: 0.912
- IC50 [2]: > 8 µM
- AUC [3]: 0.99
- IC50 [3]: > 20 µM

Cell Line: IM-9 (myeloma, suspension)
- AUC [1]: 0.9
- IC50 [1]: 3.89 µM
- AUC [5]: 0.846
- IC50 [5]: 2.35 µM
- AUC [2]: 0.876
- IC50 [2]: 6.08 µM

Cell Line: IST-SL2 (small cell lung carcinoma, suspension)
- AUC [1]: 0.81
- IC50 [1]: 2.09 µM
- AUC [5]: 0.986
- IC50 [5]: > 4 µM
- AUC [2]: 0.841
- IC50 [2]: 5.5 µM
- AUC [3]: 0.989
- IC50 [3]: > 20 µM

Cell Line: K-562 (chronic myeloid leukaemia, suspension)
- AUC [1]: 0.72
- IC50 [1]: 1.03 µM
- AUC [2]: 0.944
- IC50 [2]: > 8 µM

Cell Line: KARPAS-231 (B-cell leukaemia, suspension)
- AUC [1]: 0.835
- IC50 [1]: 1.83 µM
- AUC [5]: 0.991
- IC50 [5]: > 4 µM
- AUC [2]: 0.915
- IC50 [2]: 6.96 µM

Cell Line: KASUMI-1 (acute myeloid leukaemia, suspension)
- AUC [1]: 0.964
- IC50 [1]: > 4 µM
- AUC [5]: 0.728
- IC50 [5]: 1.12 µM

Cell Line: KP-N-YS (neuroblastoma, adherent)
- AUC [1]: 0.947
- IC50 [1]: > 4 µM
- AUC [2]: 0.912
- IC50 [2]: > 8 µM
- AUC [3]: 0.934
- IC50 [3]: > 20 µM
- AUC [4]: 0.871
- IC50 [4]: > 5.12 µM

Cell Line: LB647-SCLC (small cell lung carcinoma, semi-adherent)
- AUC [1]: 0.981
- IC50 [1]: > 4 µM
- AUC [5]: 0.983
- IC50 [5]: > 4 µM
- AUC [2]: 0.971
- IC50 [2]: > 8 µM
- AUC [3]: 0.913
- IC50 [3]: > 20 µM

Cell Line: LU-65 (large cell lung carcinoma, suspension)
- AUC [1]: 0.902
- IC50 [1]: > 4 µM
- AUC [2]: 0.941
- IC50 [2]: > 8 µM
- AUC [3]: 0.987
- IC50 [3]: > 20 µM
- AUC [4]: 0.859
- IC50 [4]: > 5.12 µM

Cell Line: MHH-NB-11 (neuroblastoma, adherent)
- AUC [1]: 0.934
- IC50 [1]: > 4 µM
- AUC [2]: 0.954
- IC50 [2]: > 8 µM
- AUC [3]: 0.985
- IC50 [3]: > 20 µM
- AUC [4]: 0.9
- IC50 [4]: > 5.12 µM

Cell Line: MOLT-13 (T-cell lymphoblastic leukaemia, suspension)
- AUC [1]: 0.865
- IC50 [1]: 2.86 µM
- AUC [5]: 0.604
- IC50 [5]: 0.464 µM
- AUC [3]: 0.983
- IC50 [3]: > 20 µM
- AUC [4]: 0.836
- IC50 [4]: 2.83 µM

Cell Line: MSTO-211H (mesothelioma, adherent)
- AUC [1]: 0.85
- IC50 [1]: 2.61 µM
- AUC [2]: 0.963
- IC50 [2]: > 8 µM
- AUC [3]: 0.988
- IC50 [3]: > 20 µM
- AUC [4]: 0.991
- IC50 [4]: > 5.12 µM
